Assay results as given in PubChem BioAssay AID686978 (National Center for Advancing Translational Sciences (NCATS), 2013).
Values joined by “and” are separate entries in the source; they are usually repeats but may differ in a detail not shown here. Equal values may be shown once. Screen size: about 420,000 compounds; about 64,000 (15%) were called active. The shares of active, inactive and inconclusive entries below differ from those in the screen. Calls follow the shape of the dose curve; as a rule, active = well fitted inhibition curve with a large enough effect; inconclusive = small, poorly fitted or top-dose-only effect; inactive = flat fitted curve, though single readings scatter. Potencies beside an inconclusive call are fits to weak or partial responses and may not hold up.

assay: qHTS for Inhibitors of human tyrosyl-DNA phosphodiesterase 1 (TDP1): qHTS in cells in absence of CPT; conditions: DT40 Tdp1-/- hTDP1 cells, no CPT, ATP luminescence, 48 h; activity change, negative = growth inhibition: at 46.2 µM (top of the series); also: nearly all actives have a fitted effect of over 55% in size
Summary of the method: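 Stably hTDP1-transfected Tdp1-null chicken DT40 cells were treated with library compounds minus camptothecin and grown for at least 48 hr at 37 °C, after which cellular ATP was quantified by luminescence.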
% is scaled to controls: 0 for no effect and ±100 for the full control effect; potency is read from the fitted curve at half-maximal effect; tags tell the direction and shape of the fitted curve.

Compound	Potency	activity change, negative = growth inhibition
Cc1ccc(CN2CC(C(=O)N3CCN(S(=O)(=O)c4ccccc4)CC3)CC2=O)cc1 (stereo unspecified)	inconclusive: 13 µM [inhibitor, partial curve, poor fit]	–
Cc1ccc(OCC(=O)Nc2nonc2-c2ccc(Br)cc2)cc1C	inconclusive: 23.1 µM [inhibitor, single point]	–
CC1(C(=O)Nc2ccc3c(c2)OCCO3)CN(S(C)(=O)=O)CC(=O)N1CCCn1ccnc1 (stereo unspecified)	–	inactive: 11.6%
COc1ncccc1C(=O)N1CCCC(C(=O)c2cccc(OC(C)C)c2)C1 (stereo unspecified)	inconclusive: 16.4 µM [inhibitor, single point]	–
COc1cc2c(cc1NC(=O)c1cccnc1)oc1ccccc12	inconclusive: 29.1 µM [inhibitor, single point]	–
O=C(CCc1ccccc1)N/N=C\c1cc2c(cc1Br)OCO2	inconclusive: 16.4 µM [inhibitor, single point]	–
CC1CCN(C(=O)CCc2ccc(Oc3cc([N+](=O)[O-])cc([N+](=O)[O-])c3)cc2)CC1	inconclusive: 29.1 µM [inhibitor, single point]	–
N#Cc1c(C(F)(F)F)cc(-c2cccs2)nc1SCc1ccc(Cl)nc1	inconclusive: 20.6 µM [inhibitor, single point]	–
Cc1ccc(C(=O)N(Cc2nnc(-c3ccccc3Cl)o2)C2CC2)o1	active: 18.4 µM	–
CC(c1ccccc1F)n1cc(C(=O)NCCCc2nc3ccccc3[nH]2)nn1 (stereo unspecified)	–	inactive: -15%
O=C(CNS(=O)(=O)c1ccccc1)N1CCN(C(=O)c2ccco2)CC1	–	inactive: 1.35%
COc1ccc(-c2ccc(NS(=O)(=O)c3cc(C)c(C)cc3C)cc2)nn1	inconclusive: 20.6 µM [inhibitor, single point]	–
COc1ccc(CNC(=O)C(=O)NCc2ccncc2)cc1	inconclusive: 29.1 µM [inhibitor, partial curve, poor fit]	–
O=C(c1ccc(F)cc1)C1CCN(CCn2c(=O)[nH]c3ccccc3c2=O)CC1	inconclusive: 16.4 µM [inhibitor, partial curve]	–
Cc1ccc(S(=O)(=O)NNC(=O)c2cnn(-c3ccc(Cl)cc3)c2C(F)(F)F)cc1	–	inactive: -19.7%
CCOC(=O)c1c(NC(=O)C2CCN(S(=O)(=O)c3cccs3)CC2)sc(C)c1C	inconclusive: 23.1 µM [inhibitor, single point]	–
COc1ccc(CSc2nc(C)[nH]c2[N+](=O)[O-])cc1[N+](=O)[O-]	–	inactive: -9.47%
CCN(CC(=O)Nc1cc(Cl)ccc1C)C(=O)c1cc(S(=O)(=O)N2CCCCCC2)ccc1OC	active: 18.4 µM	–
CC(=O)Nc1cc(C(=O)N2CCCC2)ccc1S(=O)(=O)c1ccc(C)cc1	inconclusive: 16.4 µM [inhibitor, partial curve]	–
CN(Cc1ccc(Cl)s1)C(=O)CCl	active: 1.84 µM	–
CC(Sc1ccc(S(=O)(=O)N2CCCCCC2)cn1)C(N)=O (stereo unspecified)	–	inactive: -19.6%
CCCCOc1ccc(C(=O)Nc2cccc(C)n2)cc1	inconclusive: 20.6 µM [inhibitor, single point]	–
O=C1c2[nH]nc(-c3ccccc3O)c2C(c2cccc(O)c2)N1Cc1ccco1 (stereo unspecified)	inconclusive: 11.6 µM [inhibitor, partial curve]	–

Compound	Potency	activity change, negative = growth inhibition
COc1ccc(OCCn2cc(C=O)c3ccccc32)cc1	inconclusive: 18.4 µM [inhibitor, single point]	–
NS(=O)(=O)c1ccc(N=Nc2nc3[nH]cnc(=S)c3[nH]2)cc1	active: 6.31 µM	–
CCN(CC(=O)Nc1cccc(S(=O)(=O)N2CCOCC2)c1)Cc1ccccc1	inconclusive: 29.1 µM [inhibitor, single point]	–
Cc1c(C)n(-c2ccccc2)c2ncnc(NCCN(C)C)c12	–	inactive: 11%
O=C(C1CCC1)N1CCN(c2ccc(Cl)cc2)CC1	inconclusive: 32.6 µM [inhibitor, single point]	–
Clc1ccc(CCNC(c2ccc(Cl)cc2)c2nnc(-c3ccccc3)o2)cc1 (stereo unspecified)	active: 23.1 µM	–
O=C(c1cc2c(c(-c3cccc(-c4ccncc4)c3)n1)[C@@H](CCO)N(C(=O)c1ccc3c(c1)OCO3)C2)N1CCOCC1	–	inactive: -19%
COCCCNC(=O)CCc1c(C)nc2c(c(C)nn2-c2ccc(C)cc2)c1C	–	inactive: -28.4%
O=C(NC(=S)Nc1cccc(NC(=O)c2ccccc2)c1)c1cccc([N+](=O)[O-])c1	–	inactive: -22.2%
O=C(OCCN1CCOCC1)c1ccccc1Cl	–	inactive: -8.88%
C[C@@H]1CN([C@@H](C)CO)C(=O)c2cccc(NC(=O)C3CCCCC3)c2O[C@@H]1CN(C)C(=O)NC1CCCCC1	inconclusive: 18.4 µM [inhibitor, single point]	–
Cc1ccccc1C(=O)NCC(=O)NNC(=S)NC(=O)c1ccccc1	–	inactive: -29.5%
COc1ccc(N2CCN(c3nc4ccccc4nc3NS(=O)(=O)c3ccccc3)CC2)cc1	–	inactive: -27.2%
CCc1ccc(NC(=O)Cn2c(=O)n(CCCC(=O)NCc3ccc4c(c3)OCO4)c(=O)c3ccccc32)cc1	inconclusive: 20.6 µM [inhibitor, single point]	–
COc1ccc(C(=O)NCc2nnc(SCC(=O)Nc3nnc(C)s3)o2)cc1OC	–	inactive: -11.6%
CC(=O)NC(C)(c1ccccc1)c1nc(-c2cccc3cccnc23)cs1 (stereo unspecified)	active: 14.6 µM	–
CCOC(=O)c1c(S(=O)(=O)N2CCCC(C(=O)N3CCN(c4cc(C)ccc4C)CC3)C2)c(C)n(C)c1C (stereo unspecified)	active: 9.2 µM	–
CCn1c(SCC(=O)N2CCCC2)nc2ccccc2c1=O	–	inactive: -16%
CCS(=O)(=O)NCC(c1ccco1)N1CCN(c2ccc(F)cc2)CC1 (stereo unspecified)	inconclusive: 25.9 µM [inhibitor, single point] and inconclusive: 23.1 µM [inhibitor, single point]	–
C[C@H](CO)N1C[C@H](C)[C@@H](CN(C)C(=O)Nc2ccc3c(c2)OCO3)Oc2ccc(NC(=O)CCC(F)(F)F)cc2C1=O	–	inactive: 5.63%
O=C(NCC1CCCO1)c1ccc([N+](=O)[O-])s1 (stereo unspecified)	active: 25.9 µM	–
O=C(CCCNC(=O)/C(=C\c1ccc(F)cc1)NC(=O)c1ccccc1)OCc1ccccc1	–	inactive: -19.8%
CNc1c(Cl)cc(/C=C2\C=Cc3ccccc32)cc1Cl	–	inactive: -12.1%
